Ki and IC50 data for three molecules are collected here from patent US7592458B2, “Dermal anesthetic compounds and pharmaceutical compositions for inducing local anesthesia and mitigating neuropathic pain” (priority 2006, dated 2009).

Counter-ions that a name gives are not always drawn.

In this test the target is Sodium Channels (Site 2). The test is classed as binding. The following applies: 10 nM [3H]batrachotoxinin, 60 min, 22° C.

For `CCCCN1CCCCC1CCN(c1ccccc1)C1CCc2ccccc2C1` (centres unmarked) [Bu-CLAC-34•HCl], the Ki is 110 nM. Regarding `CCCN(CCC)CCN(c1ccccc1)C1CCc2ccccc2C1` (centres unmarked) [CLAC-PP•HCl], the IC50 was determined as 250 nM and the Ki worked out at 220 nM.

`c1ccc(N(CCC2CCCCN2)C2CCc3ccccc3C2)cc1` (centres unmarked) [CLAC-34•HCl] yielded an IC50 of 200 nM and a Ki of 180 nM.

For orientation: Ki means a dissociation constant, usually derived from enzyme kinetics or from competition with a known ligand. As usually defined, the IC50 is the midpoint of a concentration-inhibition curve. A high value points to weaker potency in that assay.
